Measurements: article PMC4336329 (PLoS ONE, 2015)
The campaign covered roughly 310,000 compounds. About 14,000 (4.5%) showed an effect of 50% or more. Effects have a minus sign here. This is one part of the list.

Molecular target: human ether-à-go-go-related gene (hERG) potassium channel (human, UniProt Q12809)
Assay: primary screen, population patch clamp on CHO cells stably expressing hERG
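Further: peak tail current of the secondary pulse compared with the same well before compound.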

Chain of human ether-à-go-go-related gene (hERG) potassium channel (Q12809 whole entry, looked up): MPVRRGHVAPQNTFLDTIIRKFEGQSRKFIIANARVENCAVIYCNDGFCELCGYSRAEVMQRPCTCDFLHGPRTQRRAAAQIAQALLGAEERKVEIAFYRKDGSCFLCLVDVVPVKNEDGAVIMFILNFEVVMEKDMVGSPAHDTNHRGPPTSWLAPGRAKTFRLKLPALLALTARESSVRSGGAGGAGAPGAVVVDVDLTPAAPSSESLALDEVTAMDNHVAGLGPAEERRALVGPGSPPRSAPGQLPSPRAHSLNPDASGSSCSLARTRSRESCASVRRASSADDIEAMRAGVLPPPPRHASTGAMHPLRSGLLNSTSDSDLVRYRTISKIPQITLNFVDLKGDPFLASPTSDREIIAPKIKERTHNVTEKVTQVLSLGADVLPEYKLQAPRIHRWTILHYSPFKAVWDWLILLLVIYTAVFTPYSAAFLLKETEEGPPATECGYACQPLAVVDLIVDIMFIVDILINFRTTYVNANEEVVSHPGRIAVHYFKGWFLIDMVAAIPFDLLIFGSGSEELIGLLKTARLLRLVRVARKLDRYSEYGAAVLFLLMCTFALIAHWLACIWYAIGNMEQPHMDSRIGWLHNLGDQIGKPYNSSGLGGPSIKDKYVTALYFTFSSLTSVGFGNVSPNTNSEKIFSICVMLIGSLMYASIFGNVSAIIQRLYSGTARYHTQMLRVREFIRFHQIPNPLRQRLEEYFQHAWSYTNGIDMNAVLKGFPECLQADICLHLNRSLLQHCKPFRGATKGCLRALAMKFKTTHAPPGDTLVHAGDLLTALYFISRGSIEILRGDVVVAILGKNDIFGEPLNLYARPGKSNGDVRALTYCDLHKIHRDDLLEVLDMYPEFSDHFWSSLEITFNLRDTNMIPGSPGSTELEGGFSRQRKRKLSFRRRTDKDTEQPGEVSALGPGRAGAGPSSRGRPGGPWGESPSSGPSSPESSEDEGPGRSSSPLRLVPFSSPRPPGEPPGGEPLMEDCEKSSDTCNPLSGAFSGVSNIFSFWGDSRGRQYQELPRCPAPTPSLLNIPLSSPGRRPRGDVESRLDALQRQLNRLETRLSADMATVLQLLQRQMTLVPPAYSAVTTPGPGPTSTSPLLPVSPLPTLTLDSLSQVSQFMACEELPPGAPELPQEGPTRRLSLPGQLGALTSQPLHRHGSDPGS

| SMILES | hERG current change (%, negative = inhibition) at 10uM [%] |
| --- | --- |
| COc1ccc(C)cc1S(=O)(=O)NCc1cccs1 | -17.6 |
| c1ccc2c(CNC3CCCCCC3)c[nH]c2c1 | -20.8 |
| O=C1CC(NS(=O)(=O)c2cccnc2)CN1c1ccc(Cl)cc1 (stereo not shown) | -12 |
| CCCn1c(CCNc2nc(-c3ccc(Cl)c([N+](=O)[O-])c3)cs2)nc2cc(Cl)c(Cl)cc21 | -25.5 |
| CCCCC1=CC2=CC(=O)C(C)(OC(=O)CC)C(=O)C2=CN1Cc1ccccc1 (stereo not shown) | -42.9 |
| CCOC(=O)c1c(C)nc(SCC(N)=O)c(C#N)c1-c1ccccc1 | 9.96 |
| COc1cc(C(=O)OCC(=O)NCC2CCCCC2)ccc1OCC(C)C | 1.68 |
| C=CCNC(=S)NNC(=O)c1ccc(C)c(Cl)c1 | 53.4 |
| CCc1ccc(N2C(=O)C3NN=C(C(=O)OCc4ccccc4)C3C2=O)cc1 (stereo not shown) | -2.25 |
| CN1C(=S)SC(C)(NO)C1(C)C (stereo not shown) | 18.9 |
| COCCCNc1nc(CC(C)C)nc2c1nnn2Cc1ccccc1 | -2.28 |
| COc1ccc(C2NCc3ccccc3-n3cccc32)cc1.Cl (stereo not shown) | -21.5 |
| CC1(C)C(=O)Nc2ccccc2N1C(=O)COC(=O)c1cccnc1 | -4.73 |
| O=C(Nc1ncccc1O)c1ccc(C(=O)c2ccccc2)cc1 | 6.73 |
| O=C(COc1ccc(Br)cc1)Nc1nc(-c2cccnc2)cs1 | 4.69 |
| Nc1cc(N)nc(SCC(=O)N2CCN(S(=O)(=O)c3ccccc3)CC2)n1 | 8.13 |
| Brc1ccc(-c2nnc3sc(CNCc4ccc5c(c4)OCO5)cn23)cc1 | -16.3 |
| CCOC(=O)c1cnc(-n2nc(C)cc2C)nc1NNc1ncc(-c2ccccc2)cn1 | -17.8 |
| O=C(C1CCCCN1S(=O)(=O)c1ccccc1)N1CCN(C(c2ccccc2)c2ccccc2)CC1 (stereo not shown) | -3.5 |
| CCc1ccccc1NC(=O)CN(C)C(=O)CN1C(=O)NC2(CCCCCC2)C1=O | -4.57 |
| C=C(C)CN(CC)C(=O)c1ccc(OC2CCN(S(=O)(=O)N(C)C)CC2)cc1 | 12.2 |
| O=C(CN1C(=O)c2cccc3cccc1c23)NCC1CCCO1 (stereo not shown) | 12.4 |

| SMILES | hERG current change (%, negative = inhibition) at 10uM [%] |
| --- | --- |
| COc1cc(C(=O)NCC(C)(C)CNC(=O)c2cc(OC)c(OC)c(OC)c2)cc(OC)c1OC | 15.6 |
| COc1ccc(C(=O)C[n+]2ccccc2/C=N/O)cc1.[Br-] | 20.3 |
| COc1ccc2[nH]c(O)c(N=NC(=O)Cc3cccs3)c2c1 | -22.3 |
| CCOc1ccc(N=C2NC(=O)CS2)cc1 | 7.94 |
| COCCC1CCCCN1C(=O)c1ccc(OC2CCN(C(C)=O)CC2)c(OC)c1 (stereo not shown) | 22.6 |
| CC(C)Sc1nnc(SCC(=O)N(C)C2CCS(=O)(=O)C2)s1 (stereo not shown) | -1.49 |
| CCCn1c(N)c(C(=O)CSc2nnc3n2CCCCC3)c(=O)n(C)c1=O | 4.35 |
| O=C(c1ccccc1-c1nc(-c2ccc(Cl)cc2)no1)N1CCCC1 | 0.639 |
| Cc1ccccc1NC(=S)N/N=C/C(C)c1ccccc1 (stereo not shown) | 3.35 |
| O=C(O)CCCCCNC(=O)Cn1nnc2ccccc2c1=O | 8.37 |
| COc1ccc(OC)c(NC(=O)CCNC(=O)Cn2ccc3ccccc3c2=O)c1 | 23.7 |
| CCN1CCN(CCC(=O)Nc2cc(OC)cc(OC)c2)CC1 | 12.6 |
| COc1ccc(C(=O)NCc2ccc3c(c2)OCO3)cc1 | 9.03 |
| CCOc1ccccc1C1CC(=O)NC(SCC(=O)Nc2nccs2)=C1C#N (stereo not shown) | -0.586 |
| Cc1cc(OC(F)F)ccc1NC(=O)Nc1ccc([N+](=O)[O-])cc1 | -9.46 |
| CCN1CCN(c2nc3c(c(=O)[nH]c(=O)n3C)n2Cc2ccccc2F)CC1 | -7.31 |
| CCCC(C)NC(=O)c1ccc(OCc2ccc(Cl)cc2)c(OC)c1 (stereo not shown) | 4.98 |
| CCOc1cc(C(=O)OCC(=O)Nc2ncc(Cl)c(C)c2Cl)ccc1OCC(=O)N1CCOCC1 | -15.3 |
| O=C(Nc1ccc2c(c1)nc1n2CCN(C2CCCCC2)C1)NC1CCCCC1 | -4.34 |
| CC(Nc1c([N+](=O)[O-])c(=O)oc2ccccc12)c1ccccc1 (stereo not shown) | -28.5 |
| C/C(=N\Nc1ccc([N+](=O)[O-])cc1[N+](=O)[O-])c1cc2c(ccc3ccccc32)oc1=O | -13.1 |
| Cc1cc(N2CCN(C)CC2)nc2ccc(NC(=O)c3ccccc3F)cc12 | -58.4 |

| SMILES | hERG current change (%, negative = inhibition) at 10uM [%] |
| --- | --- |
| O=C(Cc1ccccc1F)Nc1cc(S(=O)(=O)N2CCOCC2)ccc1N1CCOCC1 | -11.9 |
| COc1ccc(CC2SC(N)=NC2=O)cc1 (stereo not shown) | 24 |
| CCN(CC)S(=O)(=O)c1cccc(C(=O)N2CCCCC2)c1 | -2.8 |
| CCCSc1nc2c(cnn2-c2ccccc2)c(=O)n1N | -33.8 |
| COc1ccc(OC)c(Nc2nc(-c3sc(C)nc3C)cs2)c1 | 7.36 |
| COc1ccc(C)cc1NC(=O)CNCc1cccs1.Cl | -5.66 |
| O=C1Nc2ccccc2SC1c1ccccc1 (stereo not shown) | 7.15 |
| COc1ccc(/C=C2\CCCC3C2=NN(C(=O)COC(=O)CNC(=O)c2ccccc2)C3c2ccc(OC)cc2)cc1 (stereo not shown) | 21.3 |
| O=C(N/N=C1\CCCCc2ccccc21)c1ccccn1 | -2.26 |
| CCN(CC)CC.COc1cc2c(cc1OC)[C@H](C)N(C(=S)Nc1ccc(F)cc1)CC2 | -1.73 |
| CCCCC1=CC2=C(c3ccco3)C(=O)C(C)(OC(=O)c3ccc(OC)cc3)C(=O)C2=CN1C1CC1 (stereo not shown) | -11.2 |
| COC(=O)Cc1ccc(NC(=S)N2CCN(c3ccc(F)cc3)CC2)cc1 | -5.8 |
| COC(=O)C1SCC2C(=O)N(Cc3ccc(Cl)cc3)CC(=O)N21 (stereo not shown) | 22.1 |
| CCCCCc1c(C)nc(Nc2ccc(F)cc2)[nH]c1=O | 5.55 |
| COc1ccc2cc(C(=O)N3CCOCC3)sc(=O)c2c1OC | 7.91 |
| Nc1nonc1C(=O)NCCc1ccccc1 | 11.8 |
| COC(=O)c1c(C(=O)OC)c(-c2cccc(Cl)c2)n2c1CS(=O)C2 (stereo not shown) | 17.6 |
| Cc1ccc(CCNC(=O)c2cccc(NC3=NC4CS(=O)(=O)CC4S3)c2)cc1 (stereo not shown) | 8.83 |
| CCCCC(=O)Nc1c(-c2cccc(OC)c2)c(=O)c2ccccc2n1C | 7.06 |
| CCN(CC)CCCNC(=O)C1c2cc(OC)c(OC)cc2C(=O)N(C)C1c1cccs1 (stereo not shown) | -0.747 |
| Cc1nc2nc(Cc3ccccc3)[nH]n2c(=O)c1Cc1ccccc1 | 13.6 |
| CCC(C(=O)OC)n1c(-c2ccccc2)nc2ccccc2c1=O (stereo not shown) | 18.1 |

| SMILES | hERG current change (%, negative = inhibition) at 10uM [%] |
| --- | --- |
| Cc1cc(OCCn2ccnc2)cc(C(C)C)c1.O=C(O)C(=O)O | -10.7 |
| Cc1cc(C)nc(NC2=NCCN2C(=O)NC2CCCCC2)n1 | -17.7 |
| Cc1ccc(C(=O)NC23CC4CC(CC(C4)C2)C3)c(Cl)c1 | 8.25 |
| COc1ccc(C(=O)N(C)CC(=O)Nc2cccc(F)c2)cc1S(=O)(=O)NC1CCCC1 | -7.96 |
| O=C(CC(=O)N/N=C/c1ccccc1)NCc1ccccc1 | -7.64 |
| Cc1cccc(N=Nc2c(N)n[nH]c2N)c1 | 5.91 |
| CN(Cc1cccc(Cl)c1Cl)C(=O)c1ccc(NC(=O)CC#N)cc1 | -9.28 |
| CC1CCN(S(=O)(=O)CCNC(=O)c2ccc(F)cc2)CC1 | 4.45 |
| COc1cccc(C(=O)Nc2ccc(NC(=O)c3cc4ccccc4o3)c(OC)c2)c1 | 14.1 |
| CCOC(=O)c1nn(-c2ccccc2)c2nnc(Cc3ccc(Cl)cc3)c(=O)n12 | 3.57 |
| CCn1c(SCC(=O)n2nc(C)cc2C)nnc1-c1ccc2c(c1)OCO2 | -1.51 |
| CCN(CC)C(=O)CSc1nc(N)c(C(=O)Nc2ccc(OC)cc2)s1 | 3.63 |
| Cc1onc(-c2ccccc2)c1C(=O)Nc1sc2c(c1C#N)CCC2 | 1.63 |
| O=C(CC1C(=O)NCCN1C/C=C/c1ccccc1)NCCc1cnccn1 (stereo not shown) | 20.1 |
| COc1cccc(N(C(=O)c2ccco2)C(C(=O)NC2CCCC2)c2cccnc2)c1 (stereo not shown) | -6.87 |
| Cc1onc(-c2ccc(Cl)cc2)c1-c1ccnc(SCC(=O)Nc2ccc(C(C)C)cc2)n1 | 10.6 |
| CCOC(=O)c1ccc(NC(=O)C(CC)(CC)C(=O)OCC)cc1 | -23.3 |
| Cc1cc(NC(=O)CCC(=O)N(CC(=O)NC2CCCC2)c2cccc(C)c2C)no1 | 6.43 |
| ON1C2CCCCC2N(O)C1c1ccccc1F (stereo not shown) | 16.7 |
| COc1cccc(C2N(Cc3ccccc3)C(=O)C2(F)F)c1OC (stereo not shown) | -24.2 |
| C=CCc1c(C)nc(C)nc1N/N=C/c1ccccc1O | -34.3 |
| CCN(CC)C(=O)CC(c1ccc2c(c1)OCO2)c1c(OC)cc(OC)c2c(-c3ccccc3)cc(=O)oc12 (stereo not shown) | 5.08 |
